Test in all cases: Primary Screen for Target Class Profiling of Small Molecule Inhibitors of Methyltransferases
Assay [1] concerns the target Glycine N-methyltransferase (Homo sapiens) (UniProt Q14749). The conditions noted are these: purified enzyme, MTase-Glo SAH luminescence; measured here: GNMT inhibition; at 40 µM; stronger effect = lower value. In short, it runs like this:
(§1)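 Each enzyme was assayed with SAM and its substrate. SAH formation detected by MTase-Glo luminescence; single-point 40 uM screen[…].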

Assay [2] deals with Guanidinoacetate N-methyltransferase (Homo sapiens) (UniProt Q14353). The conditions noted are these: purified enzyme, MTase-Glo SAH luminescence; measured here: GAMT inhibition; at 40 µM; stronger effect = lower value. The gist of the method:
as §1

In assay [3] the target is Histamine N-methyltransferase (Homo sapiens) (UniProt P50135). The conditions noted are these: purified enzyme, MTase-Glo SAH luminescence; measured here: HNMT inhibition; at 40 µM; stronger effect = lower value. In short, it runs like this: as §1
For assay [4], the target named is Nicotinamide N-methyltransferase (Homo sapiens) (UniProt P40261). The conditions noted are these: purified enzyme, MTase-Glo SAH luminescence; measured here: NNMT inhibition; at 40 µM; stronger effect = lower value. In short, it runs like this:
as §1

The target of assay [5] is Phenylethanolamine N-methyltransferase (Homo sapiens) (UniProt P11086). The conditions noted are these: purified enzyme, MTase-Glo SAH luminescence; measured here: PNMT inhibition; at 40 µM; stronger effect = lower value. The gist of the method:
as §1

The structures appear in SMILES notation. The list shows a part of the results. Further columns of the screen follow, without active or inactive calls.
% is set by controls: 0 for no effect and ±100 for the full control effect.

`S=C(NCc1ccc2c(c1)OCO2)N1CCN(c2ncnc3c2oc2ccccc23)CC1`: the activity change, negative = inhibition in assay [1] was -8.08%; in assay [2], -7.39%; in assay [3], 3.69%; in assay [4], -27.9%; in assay [5] it was -9.05%.
As to `CCn1ncc(CN2CCCCCNC(=O)[C@@H]3CCC[C@@H]32)c1C`, the activity change, negative = inhibition in assay [1] was -5.34%; in assay [2] it was -0.9%; in assay [3] it was 1.52%; in assay [4], -5.17%; in assay [5], 7.57%.
Regarding `COc1ccc(CC2(CO)CCN(c3nccc(N)n3)CC2)cc1`, the activity change, negative = inhibition in assay [1] was -4.25%; in assay [2], -3.13%; in assay [3], -16.2%; in assay [4], -4.59%; in assay [5], 0.95%.
The corresponding values for `O=C(Nc1cc(Cl)cc(Cl)c1)c1ccn2nccc2c1` are -7.54%, -4.52%, 0.164%, -12.2% and -5.07%.
With `CCc1cccc(NC(=O)[C@@H]2CN(S(C)(=O)=O)C[C@H]2c2ccncc2)c1`, the activity change, negative = inhibition is -0.722% in assay [1]; -4.54% in assay [2]; -2.26% in assay [3]; -6.78% in assay [4]; -10.2% in assay [5].
The corresponding values for `Cn1cc(-c2ccncc2)cc1C(=O)N1CCN(c2ccc(F)cc2)CC1` are -9.15%, -2.29%, -9.07%, -9.68% and -11%.
Regarding `COc1ccc(CCN2C(=O)c3cc4ccccc4n3CC2(C)C(=O)NCCC(C)C)c(OC)c1` (stereo not given), the activity change, negative = inhibition in assay [1] is -0.017%; in assay [2], 2.65%; in assay [3] it was -1.46%; in assay [4], -2.52%; in assay [5], -4.65%.
On the same counts, the results for `Cc1cnc(C(=O)N[C@@H]2CN(C3CCOCC3)C[C@H]2CN(C)C)cn1` are -2.23%, -1.29%, 0.19%, -4.05% and -1.55%.
In the case of `O=C(Cn1nc2n(Cc3ccccc3)c(=O)c3ccccc3n2c1=O)Nc1cccc(F)c1`, the activity change, negative = inhibition in assay [1] is -1.26%; in assay [2], -0.156%; in assay [3], -0.453%; in assay [4] it was -5.65%; in assay [5], -3.21%.
Consider `CC(CCc1ccccc1)N1C(=O)c2cc3occc3n2CC1(C)C(=O)NC1CCCCCCC1` (stereo not given), for which the activity change, negative = inhibition is -1.38% in assay [1]; 0% in assay [2]; 2.37% in assay [3]; -7.66% in assay [4]; -3.27% in assay [5].
On the same counts, the results for `O=C(N[C@@H]1CN(Cc2ccncc2F)C[C@H]1CO)C1CC1` are -0.249%, -1.26%, 0.491%, -3.72% and 0.597%.
Turning to `CCCC1c2ccc(C)n2CCN1C(=O)Nc1cccc(Cl)c1C` (stereo not given), the activity change, negative = inhibition was 4.01% in assay [1]; -0.392% in assay [2]; -0.527% in assay [3]; 5.37% in assay [4]; -3.2% in assay [5].
`CC1=C(C)C(=O)OC(C(C)C2CCC3C4CC=C5CC(OC6OC(COC7OC(CO)C(O)C(O)C7O)C(O)C(O)C6O)CC(O)C5(C)C4CCC23C)C1` (stereo not given): the activity change, negative = inhibition in assay [1] is 0%; in assay [2], 1.47%; in assay [3], 2.9%; in assay [4] it was -13%; in assay [5], 6.8%.
The corresponding values for `CCCN1C(=O)c2c(NC(C)=O)c3ccccc3n2CC1(C)C(=O)NC1CCCC1` (stereo not given) are -1.17%, 2.64%, -1.22%, 0.946% and 4.06%.
The corresponding values for `COc1ccc(N2CCN(C(=O)CCc3nnc4n(CCc5ccccc5)c(=O)c5ccccc5n34)CC2)cc1` are -0.473%, 0%, 4.42%, -21.3% and -0.299%.
Regarding `CCOC(=O)c1cc2n(n1)CC(C)(C(=O)NC1CCCCC1)N(c1ccc(C)cc1)C2=O` (stereo not given), the activity change, negative = inhibition in assay [1] stood at 3.49%; in assay [2], 0%; in assay [3] it was 8.07%; in assay [4], 9.27%; in assay [5], 4.45%.
As for `CN1C(=O)N[C@@H](Cc2c[nH]c3c(Cl)cccc23)C1=O`, the activity change, negative = inhibition in assay [1] was 0.11%; in assay [2] it was 0.88%; in assay [3] it was 7.74%; in assay [4] it was -13.5%; in assay [5] it was 5.04%.
In the case of `CC1(C)CCC2=C(O1)c1ccccc1C(=O)C2=O`, the activity change, negative = inhibition in assay [1] is -82.2%; in assay [2], -75.2%; in assay [3], -14.1%; in assay [4], -33.7%; in assay [5], -22.5%.
On to `COc1ccc(NC(=O)CN(C)S(=O)(=O)c2ccc3[nH]c4c(c3c2)CCCC4)cc1`, for which the activity change, negative = inhibition in assay [1] is -4.29%; in assay [2] it was -0.835%; in assay [3] it was -8.49%; in assay [4], -8.42%; in assay [5] it was -6.57%.
Regarding `Oc1ccc(-c2ccc(-c3nc(CCc4ccccc4)no3)cn2)cc1`, the activity change, negative = inhibition is -6.35% in assay [1]; -7.37% in assay [2]; -1.32% in assay [3]; -5.04% in assay [4]; -9.58% in assay [5].
For the compound `Cc1ccc(Cn2c(=O)c3ccccc3n3c(=O)n(CC(=O)c4ccc(F)cc4)nc23)cc1`, the activity change, negative = inhibition in assay [1] was 6.45%; in assay [2] it was 1.73%; in assay [3] it was 5.89%; in assay [4], 5%; in assay [5], 8.43%.
Turning to `C[C@H](c1ccc(F)cc1CCCC(=O)O)N(c1cc(F)ccc1F)S(=O)(=O)c1ccc(Cl)cc1`, the activity change, negative = inhibition in assay [1] is -7.12%; in assay [2] it was 1.12%; in assay [3], 7.93%; in assay [4], -22.6%; in assay [5], 3.25%.
The corresponding values for `CC(C)NC(=O)C1CCc2nnc(CNC(=O)C3CC3)n21` (stereo not given) are -0.68%, -4%, -0.518%, -9.11% and -6.89%.
As to `CCn1c(=O)n(CC)c2cc(S(=O)(=O)Nc3ccc(Br)c(C)c3)ccc21`, the activity change, negative = inhibition in assay [1] is -3.57%; in assay [2] it was 1.2%; in assay [3] it was -0.629%; in assay [4], -13%; in assay [5] it was -5.34%.
Regarding `CCCC1(CCC)CCC2(CCN(CCCN(CC)CC)C2)CC1`, the activity change, negative = inhibition is -3.92% in assay [1]; 0.737% in assay [2]; -56.6% in assay [3]; -35.6% in assay [4]; -11.5% in assay [5].
Turning to `CN1C[C@@H](NC(=O)NC2CCCCC2)C[C@H]1c1nc(-c2ccccn2)no1`, the activity change, negative = inhibition in assay [1] was -4.69%; in assay [2] it was -8.33%; in assay [3] it was -2.45%; in assay [4] it was -9.13%; in assay [5] it was -23.4%.
Turning to `Cc1cnc(C2CC2)n1C1CCN(S(=O)(=O)c2cccc(F)c2)CC1`, the activity change, negative = inhibition is -1.91% in assay [1]; 0% in assay [2]; -3.15% in assay [3]; 1.41% in assay [4]; 3.17% in assay [5].
On to `Cc1cc(C)cc(N2C(=O)c3cc4occc4n3CC2(C)C(=O)NC2CCC(C)CC2)c1` (stereo not given), for which the activity change, negative = inhibition in assay [1] is -6.7%; in assay [2], 2.73%; in assay [3], -4.09%; in assay [4], -7.18%; in assay [5], -2.96%.
`Cc1ccc(CNC(=O)CCCc2nnc3n4nc(-c5ccccc5)nc4c4ccccc4n23)cc1`: the activity change, negative = inhibition in assay [1] was -6.95%; in assay [2] it was 0%; in assay [3], 3.77%; in assay [4], 11.4%; in assay [5], 0.438%.
On the same counts, the results for `CC(=O)N1CCCN(C(=O)c2ccc3c(c2)NC(C)(CCCCc2ccccc2)CO3)CC1` (stereo not given) are -1.09%, -0.555%, 2.72%, -6.8% and 0.678%.

The values are drawn from PubChem BioAssay AID1745853 (National Center for Advancing Translational Sciences (NCATS), 2022).
